# In PubChem BioAssay AID485294 (National Center for Advancing Translational Sciences (NCATS), 2010):
# Among all 370,000 compounds or so, about 150 (0.041%) were called active. Inconclusive means that the source gave no clear call. Such entries were picked first, then a sample of the others. Calls follow the shape of the dose curve; as a rule, active = well fitted inhibition curve with a large enough effect; inconclusive = small, poorly fitted or top-dose-only effect; inactive = flat fitted curve, though single readings scatter. Potencies of inconclusive entries are left out as doubtful fits.
# Target: Beta-lactamase (Escherichia coli (strain K12)) (UniProt P00811)
# Chain of UniProt P00811 (P00811 whole entry, looked up): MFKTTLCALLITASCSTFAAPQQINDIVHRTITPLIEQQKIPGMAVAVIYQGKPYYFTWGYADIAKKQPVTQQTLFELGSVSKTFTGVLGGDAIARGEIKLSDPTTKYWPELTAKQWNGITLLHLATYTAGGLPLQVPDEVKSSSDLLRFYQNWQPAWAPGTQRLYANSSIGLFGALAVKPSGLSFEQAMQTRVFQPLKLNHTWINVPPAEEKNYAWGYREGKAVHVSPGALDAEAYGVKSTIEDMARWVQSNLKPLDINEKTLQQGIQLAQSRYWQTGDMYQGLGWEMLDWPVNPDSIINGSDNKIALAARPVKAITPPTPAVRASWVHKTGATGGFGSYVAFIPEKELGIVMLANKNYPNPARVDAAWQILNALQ
# Assay: qHTS Inhibitors of AmpC Beta-Lactamase (assay with detergent); also: nearly all actives have a fitted effect of over 25% in size;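 as to activity change, negative = inhibition: 0% = no-compound wells and -100% = no-enzyme wells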
# Conditions: AmpC hydrolysis of nitrocefin, absorbance 480 nm, 0.01% Triton; activity change, negative = inhibition: at 114 µM (top of the series)
# Summary of the method: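 20 mM phosphate pH 7.0 + 0.01% (detergent screen) or 0.0001% Triton X-100; 5.3 nM AmpC reagent; cpd preinc 15 min RT; nitrocefin (800 uM stock) to start; A480 q20 s × 4 min; Activity was normalised to no-enzyme and no-compound control wells.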
# Potency is read from the fitted curve at half-maximal effect; tags tell the direction and shape of the fitted curve.
Structure (SMILES),Potency,"activity change, negative = inhibition"
O=C(Nc1ccc(-c2cn3ccsc3n2)cc1)C1COc2ccccc2O1 (stereo not drawn),"inconclusive [inhibitor, full curve]",
O=C(O)[C@@H]1CCCC[C@@H]1C(=O)N1CCc2ccccc2C1CN1C(=O)c2ccccc2C1=O (stereo partly drawn),,inactive: -10.1%
O=C(CCN1C(=O)C2CC=C(Cl)CC2C1=O)NC1CCCCC1 (stereo not drawn),"inconclusive [inhibitor, full curve, poor fit]",
COc1ccc(NC(=O)CCc2c(C)nc3nc(C)nn3c2C)cc1,"inconclusive [inhibitor, full curve, poor fit]",
O=C(Nc1cccc(C(F)(F)F)c1)C1CCCCC1,,inactive: 4.01%
N#Cc1ccc(CN2CCN(C(=O)CNS(=O)(=O)c3ccc4c(c3)OCCCO4)CC2)cc1,,inactive: -3.7%
COCCN1C=C(C(=O)OC)C(c2ccccc2C(F)(F)F)C(C(=O)OC)=C1,,inactive: -10.2%
CC(C)(C)NC(=O)NC(=O)CN1C(=O)NC(c2ccccc2)(c2ccccc2)C1=O,"inconclusive [inhibitor, full curve, poor fit]",
O=C(COC(=O)CNC(=O)c1cccc([N+](=O)[O-])c1)Nc1cccc(S(=O)(=O)N2CCCC2)c1,"inconclusive [inhibitor, partial curve, poor fit]",
CC(C)(C)c1nn(-c2ccccc2)c2nc(Cl)c(C=O)cc12,"inconclusive [inhibitor, single point]",
O=C(CN1CCCC1)Nc1cc(C(F)(F)F)ccc1Cl,"inconclusive [inhibitor, full curve, poor fit]",
O=C(CSc1nc(-c2ccccc2)cc(C(F)(F)F)n1)N1CCOCC1,"inconclusive [inhibitor, full curve, poor fit]",
OCCC1CN(Cc2cnc(-c3ccc(Cl)cc3)nc2)CCN1C1CCCCC1 (stereo not drawn),,inactive: 0.538%
CC(C)C(=O)N1CCN(c2nc(-c3ccccc3)c3c(c2C#N)CCCC3)CC1,"inconclusive [inhibitor, full curve, poor fit]",
O=C(CSc1nnc2c3ccccc3c3ccccc3c2n1)Nc1ccccc1,"inconclusive [inhibitor, partial curve]",
Cc1ccc(-n2cc(CN3CCN(c4ccccn4)CC3)c(-c3ccc(F)cc3)n2)cc1,,inactive: 9.4%
CC1Cc2ccccc2N1C(=O)CSc1nnc2c(n1)[nH]c1ccccc12 (stereo not drawn),,inactive: -13.2%
Cn1c(=O)c2c(nc(NNC(=O)C(F)(F)F)n2C)n(C)c1=O,"inconclusive [inhibitor, single point]",
Cc1cccc(-n2c(N)cc(=O)nc2SCC(=O)Nc2cc(C)on2)c1,"inconclusive [inhibitor, partial curve, poor fit]",
CCOc1ccccc1OCCCC(=O)Nc1cccc(-n2cnnn2)c1C,"inconclusive [inhibitor, full curve, poor fit]",
Cc1onc(-c2ccccc2Cl)c1C(=O)Nc1nnc(-c2ccc(F)cc2)s1,,inactive: -3.37%
Cc1ncoc1C(=O)Nc1ncc([N+](=O)[O-])s1,,inactive: -10.4%
COc1cc(SC#N)ccc1N=Cc1c(C)[nH]n(-c2ccc(Cl)cc2)c1=O,"inconclusive [inhibitor, full curve, poor fit]",

Structure (SMILES),Potency,"activity change, negative = inhibition"
CC(=O)NNC(=O)c1ccncc1,"inconclusive [inhibitor, full curve, poor fit]",
CCOC(=O)Cn1c(CN2CCN(C(c3ccccc3)c3ccccc3)CC2)nc2c1c(=O)n(C)c(=O)n2C,"inconclusive [inhibitor, full curve, poor fit]",
COc1cc(NS(=O)(=O)c2ccc(NC(=O)COc3ccc(C)cc3)cc2)nc(OC)n1,"inconclusive [inhibitor, full curve, poor fit]",
CCCN1CCC(NC(=O)Nc2cc(Cl)ccc2OC)CC1,"inconclusive [inhibitor, partial curve]",
O=C(NCCOc1cccnc1)C1CCC(=O)N(Cc2ccccc2F)C1 (stereo not drawn),"inconclusive [inhibitor, full curve, poor fit]",
CC(C)OCCCn1c(SCC(=O)N2CCCC2=O)nc2ccccc2c1=O,"inconclusive [inhibitor, full curve, poor fit]",
CCCCCCN1N=C(C)C(C(=O)c2ccc(Cl)cc2)C1=O (stereo not drawn),"inconclusive [inhibitor, single point]",
O=C(Nc1ccc(Cl)cc1)OCc1cn(-c2ccccc2)nn1,"inconclusive [inhibitor, full curve, poor fit]",
Cc1cccc(C(C(=O)NC2CCCCC2)N(Cc2cccnc2)C(=O)c2csnn2)c1 (stereo not drawn),"inconclusive [inhibitor, partial curve]",
Cc1ccc(C(=O)NCCN2CCOCC2)c(Cl)c1,"inconclusive [inhibitor, full curve, poor fit]",
COc1ccc(NC(=O)CCc2c(C)nn(-c3ccc(N4CCOCC4)nn3)c2C)cc1Cl,,inactive: 21.8%
Cc1cc(N2CCCC2)nc2ccccc12,,inactive: 1.33%
CC1CCCC(NC(=O)COC(=O)c2ccc(Cl)nc2)C1C (stereo not drawn),"inconclusive [inhibitor, full curve]",
O=C(COC(=O)Cc1ccccc1F)Nc1ccc(F)cc1F,"inconclusive [inhibitor, full curve, poor fit]",
O=C(Cc1ccccc1)NN1CCCCC1,,inactive: -1.12%
COCCN(C(=O)CNC(=O)c1ccco1)C(C(=O)NC1CCCC1)c1cccs1 (stereo not drawn),"inconclusive [inhibitor, full curve, poor fit]",
CCOc1ccc(Oc2ccc(S(=O)(=O)N3CCOCC3)cc2NC(=O)C2=COCCO2)cc1,"inconclusive [inhibitor, full curve, poor fit]",
CN(/N=C/c1cccnc1)c1cnc2ccccc2n1,"inconclusive [inhibitor, full curve, poor fit]",
Cc1cc(Br)ccc1NC(=O)CN(C)C(=O)CN1C(=O)NC2(CCCC2)C1=O,"inconclusive [inhibitor, full curve, poor fit]",
O=C(NCc1ccc(F)cc1)C(=O)NCC1OCCN1C(=O)c1cccs1 (stereo not drawn),"inconclusive [inhibitor, full curve, poor fit]",
O=C(COC(=O)CCC(=O)c1ccc(F)cc1)Nc1ccc2[nH]c(=O)[nH]c2c1,"inconclusive [inhibitor, full curve, poor fit]",
CCOC(=O)C1=C(C)Nc2nc(C)nn2C1c1ccc(C)cc1 (stereo not drawn),"inconclusive [inhibitor, full curve, poor fit]",
COc1ccc(-n2nnnc2SCC(=O)Nc2ccccc2F)cc1,"inconclusive [inhibitor, full curve, poor fit]",

Structure (SMILES),Potency,"activity change, negative = inhibition"
CCCn1c(N)c(C(=O)CSc2nnc(Cc3ccccc3)o2)c(=O)n(C)c1=O,"inconclusive [inhibitor, single point]",
COc1ccc(C(=O)CCC(=O)Nc2ccccc2C)cc1,,inactive: -5.77%
N=c1c(C(=O)NCCN2CCOCC2)cc2c(=O)n3ccccc3nc2n1CCc1ccccc1,,inactive: -0.873%
COc1ccc(/C=N/NC(=O)CSCC(=O)Nc2ccccc2)cc1,,inactive: 1.13%
COc1ccc(N(C)C(=O)NCc2noc3ccc(C)cc23)c(OC)c1,,inactive: 3.62%
COc1cccc(/C=C/C(=O)Nc2ccc(N3CCOCC3)cc2)c1OC,,inactive: 7.15%
CCCNC(=O)Nc1cc(C(=O)NCc2cccc(OCC)c2)ccc1N1CCCC1,,inactive: -0.896%
CN(C)S(=O)(=O)N1CCC(Oc2cccc(C(=O)NCCC3=CCCCC3)c2)CC1,"inconclusive [inhibitor, full curve, poor fit]",
NC(=O)c1ccccc1NC(=S)NC(=O)CCc1ccccc1,"inconclusive [inhibitor, full curve, poor fit]",
CCn1c(CC(=O)Nc2ccc(Cl)c(Cl)c2)nnc1SCc1ccc(Cl)cc1,"inconclusive [inhibitor, full curve]",
COc1ccc(NC(=O)CSc2ncn(-c3ccccc3)n2)cc1Cl,"inconclusive [inhibitor, full curve, poor fit]",
Cc1cc(C)c2c(=O)n(CC(=O)NC3CCCC3)sc2n1,"inconclusive [inhibitor, partial curve]",
CN(C)CCCN(C(=O)c1ccc(S(=O)(=O)N2CCCCC2)cc1)c1nc2cc3c(cc2s1)OCO3,,inactive: -2.32%
Cc1ccc(NC(=O)N2CCCC2C(=O)NCc2ccc(Cl)cc2)cc1 (stereo not drawn),,inactive: 0.408%
COc1ccc2oc(=O)c(C(=O)N3c4ccccc4CC3C)cc2c1 (stereo not drawn),"inconclusive [inhibitor, full curve, poor fit]",
CCOC(=O)c1cccc(-c2c(-c3ccccc3)ncc3cc(OC)c(OC)cc23)c1,,inactive: 7.34%
Cc1cc(=O)n2c3ccccc3n(CC(O)CN3CCCCC3)c2c1C#N (stereo not drawn),"inconclusive [inhibitor, full curve, poor fit]",
COc1ccc(CN2CCNCC2)c(OC)c1OC,"inconclusive [inhibitor, partial curve]",
CC1(C)Cc2c(ccc3ccccc23)C(=O)N1,,inactive: 0.992%
O=C(NC1CCCc2ccccc21)c1cccnc1 (stereo not drawn),"inconclusive [inhibitor, partial curve, poor fit]",
O=C(NCc1ccc(Cl)cc1)N1CCc2ccccc2C1,,inactive: -9.82%
Cc1ccc(-c2n[nH]c(=O)c3ccccc23)cc1S(N)(=O)=O,"inconclusive [inhibitor, full curve, poor fit]",
